# Assay results taken from the antibiotic and cytotoxicity screens of Wong et al. (2023).
# The other results are listed elsewhere or left out.
# System: HepG2
# Assay: cytotoxicity call (relative viability < 0.9)
# Conditions: 10 µM
row,SMILES,cytotoxicity call
1,C[C@@H]1CN([C@@H](C)CO)C(=O)c2cc(NC(=O)CCN3CCOCC3)ccc2O[C@H]1CN(C)Cc1ccncc1,inactive
2,C[C@H](CO)N1C[C@H](C)[C@@H](CN(C)C(=O)Cc2ccncc2)Oc2cc(C3=CCCC3)ccc2S1(=O)=O,inactive
3,C[C@H](CO)N1C[C@H](C)[C@@H](CN(C)C(=O)Nc2ccc(F)cc2)Oc2ccc(NC(=O)CCCCCC(=O)Nc3ccccc3N)cc2C1=O,inactive
4,C[C@H](CO)N1C[C@H](C)[C@@H](CN(C)C(=O)c2ccc3c(c2)OCO3)Oc2ncc(C#Cc3ccccc3F)cc2C1=O,inactive
5,C[C@H]1CN([C@@H](C)CO)C(=O)CCCn2cc(nn2)CO[C@@H]1CN(C)C(=O)Nc1ccc(C(C)(C)C)cc1,inactive
6,C[C@@H]1CCCCO[C@H](CN(C)S(=O)(=O)c2cn(C)cn2)[C@H](C)CN([C@@H](C)CO)C(=O)c2cc(NC(=O)CCCN(C)C)ccc2O1,inactive
7,C[C@H](CO)N1C[C@H](C)[C@@H](CN(C)Cc2ccncc2)Oc2ccc(NS(=O)(=O)c3ccc(F)cc3)cc2C1=O,inactive
8,C(=C\c1ccccc1)/CSc1ncnc2c1oc1ccccc12,inactive
